Results reported in the supplement of paper PMC6451100.
This is one part of the list. These are enrichments in a pooled selection; single values are uncertain.

system: Drosophila AGO1 (endogenous, S2-R+ lysate); test: AGO1 loading enrichment factor (IP read count / input read count, not library-size normalised) (ratio); higher = more efficient loading into AGO1; conditions: randomized region: 5' 5N of miR-317 loop
Experimental: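 HISSA: 5'-phosphorylated, 32P-labelled 20-nt ssRNA oligos (miR-317 loop, first 5 nt randomized, constant 3' part TGAAATGCAAGCAAG as printed in methods; DNA letters for RNA) incubated 1 h at 25°C in S2-R+ cell lysate. Endogenous AGO1 was immunopurified with anti-AGO1 and bound oligos were sequenced after splinted ligation.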
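Also: S2-R+ lysate came from cells stably expressing FLAG-tagged AGO2, enrichment per 5N variant computed with FASTAptamer, reads lacking the constant 3′ segment discarded.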

Sequence | AGO1 loading enrichment factor
AGCATTGAAATGCAAGCAAG | 0.0986
ACGCTTGAAATGCAAGCAAG | 0.00687
GCGACTGAAATGCAAGCAAG | 6.65
TACCGTGAAATGCAAGCAAG | 1.37
CGAAATGAAATGCAAGCAAG | 0.0918
ACCATTGAAATGCAAGCAAG | 0.108
ACGAGTGAAATGCAAGCAAG | 0.128
TCCGCTGAAATGCAAGCAAG | 0.224
CCCCATGAAATGCAAGCAAG | 0.413
CGACATGAAATGCAAGCAAG | 1.42
AGAGTTGAAATGCAAGCAAG | 0.0833
CGGCTTGAAATGCAAGCAAG | 0.0773
GAATATGAAATGCAAGCAAG | 0.132
ACGGATGAAATGCAAGCAAG | 0.376
TCTCGTGAAATGCAAGCAAG | 0.347
GCGCTTGAAATGCAAGCAAG | 0.0511
CGAGCTGAAATGCAAGCAAG | 0.00327
GGTCTTGAAATGCAAGCAAG | 0.00932
GCCTATGAAATGCAAGCAAG | 0.113
AGGTATGAAATGCAAGCAAG | 0.072
AGTTCTGAAATGCAAGCAAG | 0.182
TGATATGAAATGCAAGCAAG | 0.139
ATCGGTGAAATGCAAGCAAG | 0.211

Sequence | AGO1 loading enrichment factor
TCCTCTGAAATGCAAGCAAG | 1.04
TATCGTGAAATGCAAGCAAG | 0.504
GGTGGTGAAATGCAAGCAAG | 1.63
CTTAGTGAAATGCAAGCAAG | 0.0367
AGGCGTGAAATGCAAGCAAG | 0.113
ACACATGAAATGCAAGCAAG | 0.212
CTACTTGAAATGCAAGCAAG | 0.16
CCCCTTGAAATGCAAGCAAG | 0.00279
GTTAATGAAATGCAAGCAAG | 0.148
GTCTTTGAAATGCAAGCAAG | 0.0521
GGGTTTGAAATGCAAGCAAG | 0.112
GTTAGTGAAATGCAAGCAAG | 0.0997
CCCTATGAAATGCAAGCAAG | 0.106
CGGGTTGAAATGCAAGCAAG | 0.255
TTTAATGAAATGCAAGCAAG | 0.925
GGCCATGAAATGCAAGCAAG | 0.304
CCGTTTGAAATGCAAGCAAG | 0.148
TGAGGTGAAATGCAAGCAAG | 0.39
TCGGGTGAAATGCAAGCAAG | 0.525
AAGATTGAAATGCAAGCAAG | 0.113
ATGCGTGAAATGCAAGCAAG | 0.401
ATCGATGAAATGCAAGCAAG | 0.282
TCATCTGAAATGCAAGCAAG | 0.194

Sequence | AGO1 loading enrichment factor
TCGTCTGAAATGCAAGCAAG | 0.398
GGTTATGAAATGCAAGCAAG | 0.145
CTCCCTGAAATGCAAGCAAG | 0.102
GCGAGTGAAATGCAAGCAAG | 0.219
GCCCTTGAAATGCAAGCAAG | 0.073
CGCTATGAAATGCAAGCAAG | 0.0236
CAACGTGAAATGCAAGCAAG | 0.14
CAATATGAAATGCAAGCAAG | 0.0636
TCTACTGAAATGCAAGCAAG | 0.558
GTGGCTGAAATGCAAGCAAG | 0.0878
ATCGTTGAAATGCAAGCAAG | 0.0802
GATCTTGAAATGCAAGCAAG | 0.0841
AAAAGTGAAATGCAAGCAAG | 0.131
TGCGATGAAATGCAAGCAAG | 0.177
CCCTTTGAAATGCAAGCAAG | 0.00466
CACACTGAAATGCAAGCAAG | 0.0733
TCTTCTGAAATGCAAGCAAG | 0.628
TCTCCTGAAATGCAAGCAAG | 1.04
CGAGTTGAAATGCAAGCAAG | 0.0578
TAGAGTGAAATGCAAGCAAG | 0.463
GATTATGAAATGCAAGCAAG | 0.0903
TACGTTGAAATGCAAGCAAG | 0.457
GATAGTGAAATGCAAGCAAG | 0.133

Sequence | AGO1 loading enrichment factor
CCCGCTGAAATGCAAGCAAG | 0.0541
CATGATGAAATGCAAGCAAG | 0.0772
CCAGTTGAAATGCAAGCAAG | 0.125
AAGTCTGAAATGCAAGCAAG | 0.107
CTAGATGAAATGCAAGCAAG | 0.0886
CAGATTGAAATGCAAGCAAG | 0.0513
AAGCCTGAAATGCAAGCAAG | 0.225
ACAGATGAAATGCAAGCAAG | 0.139
TCTAGTGAAATGCAAGCAAG | 0.317
CAATGTGAAATGCAAGCAAG | 0.335
GGAGGTGAAATGCAAGCAAG | 1.61
TAAGCTGAAATGCAAGCAAG | 0.162
TCTGATGAAATGCAAGCAAG | 0.378
AGTTATGAAATGCAAGCAAG | 0.104
GAATTTGAAATGCAAGCAAG | 0.121
ACGGCTGAAATGCAAGCAAG | 0.164
GACCATGAAATGCAAGCAAG | 0.45
AAGGCTGAAATGCAAGCAAG | 0.0441
CACGCTGAAATGCAAGCAAG | 0.024
TTCTGTGAAATGCAAGCAAG | 0.18
